Consider 32 variants from the GPR68 mutational scans of Howard et al. (2025).

The least precise scores are not listed. The source holds two more conditions with little spread; they are left out. In variant names, del marks residues removed and ins residues inserted between the two positions. For part of these data: How much ogerin was present is not stated here.

First the molecules themselves.
B1: GPR68, Q15743 (parent)
chain: MGNITADNSSMSCTIDHTIHQTLAPVVYVTVLVVGFPANCLSLYFGYLQIKARNELGVYLCNLTVADLFYICSLPFWLQYVLQHDNWSHGDLSCQVCGILLYENIYISVGFLCCISVDRYLAVAHPFRFHQFRTLKAAVGVSVVIWAKELLTSIYFLMHEEVIEDENQHRVCFEHYPIQAWQRAINYYRFLVGFLFPICLLLASYQGILRAVRRSHGTQKSRKDQIQRLVLSTVVIFLACFLPYHVLLLVRSVWEASCDFAKGVFNAYHFSLLLTSFNCVADPVLYCFVSETTHRDLARLRGACLAFLTCSRTGRAREAYPLGAPEASGKSGAQGEEPELLTKLHPAFQTPNSPGSGGFPTGRLA

The variants in data set [1] derive from B1. As to the kind of experiment: cAMP reporter score (Enrich2 score, wild type = 0); higher = more signal; HEK293T, FACS bins.
Data set [2] covers variants of B1. The experiment in a line: surface expression score (Enrich2 score, wild type = 0); higher = more signal; HEK293T, FACS bins.

Consider L201_L202insG, for which the cAMP reporter score in data set [1] (pH 5.5) was -2.05; in data set [1] (pH 6) it was -1.09; in data set [1] (pH 6, modulator: ogerin) it was -1.71; in data set [1] (pH 6.5, modulator: ogerin) it was -0.741. Also, the surface expression score in data set [2] is -2.43.

For the variant F194_L195insG, the cAMP reporter score in data set [1] (pH 5.5) is -1.82; in data set [1] (pH 6), -0.776; in data set [1] (pH 6, modulator: ogerin) it was -1.8; in data set [1] (pH 6.5, modulator: ogerin), -1.95. The surface expression score in data set [2] was -2.56.

Regarding I208del, the cAMP reporter score in data set [1] (pH 5.5) is -1.24; in data set [1] (pH 6) it was -1.83; in data set [1] (pH 6, modulator: ogerin), -1.43; in data set [1] (pH 6.5, modulator: ogerin), -1.87. For the same variant, the surface expression score in data set [2] is -0.442.

On to F194V, for which the cAMP reporter score in data set [1] (pH 5.5) is -1.24; in data set [1] (pH 6), -0.588; in data set [1] (pH 6, modulator: ogerin) it was -1.31; in data set [1] (pH 6.5, modulator: ogerin), -1.15.

For F194W, the cAMP reporter score is 0.411 in data set [1] (pH 5.5); -0.418 in data set [1] (pH 6); -0.91 in data set [1] (pH 6, modulator: ogerin); 0.636 in data set [1] (pH 6.5, modulator: ogerin).

Turning to F194Y, the cAMP reporter score in data set [1] (pH 5.5) is 0.396; in data set [1] (pH 6), -0.711; in data set [1] (pH 6, modulator: ogerin), -2.78; in data set [1] (pH 6.5, modulator: ogerin), -2.16. In addition, in data set [2], the surface expression score was -2.51.

Take P197_I198insGSG: the cAMP reporter score in data set [1] (pH 5.5) was -1.49; in data set [1] (pH 6), -1.76; in data set [1] (pH 6, modulator: ogerin), -1.79; in data set [1] (pH 6.5, modulator: ogerin), -0.616.

Turning to C199_L200insGSG, the cAMP reporter score in data set [1] (pH 5.5) is -2.36; in data set [1] (pH 6) it was -1.47; in data set [1] (pH 6, modulator: ogerin) it was -2.36; in data set [1] (pH 6.5, modulator: ogerin) it was -2.32. Further, in data set [2], the surface expression score is -2.1.

Turning to Y205_Q206insG, the cAMP reporter score is -1.54 in data set [1] (pH 5.5); -1.6 in data set [1] (pH 6); -1.94 in data set [1] (pH 6, modulator: ogerin); -1.45 in data set [1] (pH 6.5, modulator: ogerin). Further, the surface expression score in data set [2] is -2.69.

On to Y205_Q206del, for which the cAMP reporter score in data set [1] (pH 5.5) is -2.22; in data set [1] (pH 6) it was -1.2; in data set [1] (pH 6.5, modulator: ogerin), 0.037. For the same variant, the surface expression score in data set [2] was -2.29.

With C199F, the cAMP reporter score came to 0.923 in data set [1] (pH 5.5); 0.439 in data set [1] (pH 6); 1.06 in data set [1] (pH 6, modulator: ogerin); 0.679 in data set [1] (pH 6.5, modulator: ogerin). For the same variant, the surface expression score in data set [2] is -0.426.

Regarding C199M, the cAMP reporter score in data set [1] (pH 5.5) was determined as 1.24; in data set [1] (pH 6), 0.452; in data set [1] (pH 6, modulator: ogerin), 1.5; in data set [1] (pH 6.5, modulator: ogerin), 1.34. In addition, the surface expression score in data set [2] came to 0.485.

Take C199V: the cAMP reporter score in data set [1] (pH 5.5) was 0.031; in data set [1] (pH 6), -0.272; in data set [1] (pH 6, modulator: ogerin) it was -0.259; in data set [1] (pH 6.5, modulator: ogerin), -0.808. Further, the surface expression score in data set [2] came to 0.394.

With C199T, the cAMP reporter score is 0.723 in data set [1] (pH 5.5); 0.792 in data set [1] (pH 6, modulator: ogerin); 0.792 in data set [1] (pH 6.5, modulator: ogerin). Also, the surface expression score in data set [2] worked out at 0.244.

As to C199E, the cAMP reporter score in data set [1] (pH 5.5) is -0.851; in data set [1] (pH 6) it was -1.81; in data set [1] (pH 6, modulator: ogerin), -1.02; in data set [1] (pH 6.5, modulator: ogerin) it was -0.698. Besides, the surface expression score in data set [2] was -2.61.

As for C199Y, the cAMP reporter score in data set [1] (pH 5.5) was -0.939; in data set [1] (pH 6), -0.783; in data set [1] (pH 6, modulator: ogerin), -0.959; in data set [1] (pH 6.5, modulator: ogerin), -1.67. Further, in data set [2], the surface expression score is -1.62.

As to C199H, the cAMP reporter score in data set [1] (pH 5.5) was -0.178; in data set [1] (pH 6) it was -0.187; in data set [1] (pH 6.5, modulator: ogerin), -3.11.

In the case of C199R, the cAMP reporter score in data set [1] (pH 5.5) was -5.2; in data set [1] (pH 6) it was -0.434; in data set [1] (pH 6, modulator: ogerin), -0.614; in data set [1] (pH 6.5, modulator: ogerin), 0.407.

Regarding C199G, the cAMP reporter score in data set [1] (pH 5.5) is -0.056; in data set [1] (pH 6), -0.41; in data set [1] (pH 6, modulator: ogerin), 0.16; in data set [1] (pH 6.5, modulator: ogerin) it was -0.867. The surface expression score in data set [2] was -0.368.

As to C199S, the cAMP reporter score in data set [1] (pH 5.5) is 0.359; in data set [1] (pH 6) it was -1.09; in data set [1] (pH 6, modulator: ogerin), 0.236; in data set [1] (pH 6.5, modulator: ogerin), -0.892. For the same variant, the surface expression score in data set [2] was found to be 0.408.

For C199W, the cAMP reporter score in data set [1] (pH 5.5) was 0.199; in data set [1] (pH 6) it was -0.844; in data set [1] (pH 6, modulator: ogerin), 0.269; in data set [1] (pH 6.5, modulator: ogerin), -0.02. In addition, in data set [2], the surface expression score is -1.61.

As for C199I, the cAMP reporter score was -0.169 in data set [1] (pH 5.5); -0.798 in data set [1] (pH 6); 0.401 in data set [1] (pH 6.5, modulator: ogerin). Further, the surface expression score in data set [2] was determined as 0.992.

Regarding C199Q, the cAMP reporter score was -0.867 in data set [1] (pH 5.5); -1.33 in data set [1] (pH 6); -0.97 in data set [1] (pH 6, modulator: ogerin); -0.695 in data set [1] (pH 6.5, modulator: ogerin). Besides, in data set [2], the surface expression score is -2.46.

C199N: the cAMP reporter score in data set [1] (pH 5.5) is -1.55; in data set [1] (pH 6, modulator: ogerin) it was -2.45; in data set [1] (pH 6.5, modulator: ogerin) it was -1.32.

Consider C199A, for which the cAMP reporter score is 0.103 in data set [1] (pH 5.5); -1.02 in data set [1] (pH 6); 0.35 in data set [1] (pH 6, modulator: ogerin); 0.551 in data set [1] (pH 6.5, modulator: ogerin). Besides, the surface expression score in data set [2] worked out at 0.001.

For A203del, the cAMP reporter score was -0.906 in data set [1] (pH 5.5); -1.13 in data set [1] (pH 6); -1.27 in data set [1] (pH 6, modulator: ogerin); -1.03 in data set [1] (pH 6.5, modulator: ogerin). Further, the surface expression score in data set [2] is -1.67.

With A203T, the cAMP reporter score came to 1.33 in data set [1] (pH 5.5); 0.639 in data set [1] (pH 6); 2.02 in data set [1] (pH 6, modulator: ogerin); 0.83 in data set [1] (pH 6.5, modulator: ogerin). In addition, the surface expression score in data set [2] turned out to be 0.292.

Regarding A203W, the cAMP reporter score is -0.395 in data set [1] (pH 5.5); -1.32 in data set [1] (pH 6, modulator: ogerin); -1.09 in data set [1] (pH 6.5, modulator: ogerin). Besides, in data set [2], the surface expression score was -0.286.

Turning to A203R, the cAMP reporter score in data set [1] (pH 5.5) is -0.511; in data set [1] (pH 6, modulator: ogerin), -0.878; in data set [1] (pH 6.5, modulator: ogerin), -0.721. In addition, in data set [2], the surface expression score is -1.72.

In the case of A203F, the cAMP reporter score in data set [1] (pH 5.5) stood at 1.2; in data set [1] (pH 6), 1.53; in data set [1] (pH 6, modulator: ogerin), 1.33; in data set [1] (pH 6.5, modulator: ogerin), 2.4. The surface expression score in data set [2] came out at 2.25.

On to A203P, for which the cAMP reporter score was 0.223 in data set [1] (pH 5.5); 1.04 in data set [1] (pH 6); 0.253 in data set [1] (pH 6, modulator: ogerin); -0.567 in data set [1] (pH 6.5, modulator: ogerin). For the same variant, the surface expression score in data set [2] was -2.17.

On to A203I, for which the cAMP reporter score is 0.383 in data set [1] (pH 5.5); 0.087 in data set [1] (pH 6); 0.179 in data set [1] (pH 6, modulator: ogerin); 0.926 in data set [1] (pH 6.5, modulator: ogerin). Besides, the surface expression score in data set [2] amounted to 0.211.
